# From ChEMBL document CHEMBL5634115, “Exploring novel anticancer pyrazole benzenesulfonamides featuring tail approach strategy as carbonic anhydrase inhibitors” (Eur J Med Chem, 2023)
# Key:
# Assay in all cases: cells
# CCRF-CEM [1] = format: functional; settings: Homo sapiens, time 48 hrs
# HL-60(TB) [2] = format: functional; settings: Homo sapiens, time 48 hrs
# EKVX = format: functional; settings: Homo sapiens, time 48 hrs
# HOP-92 [3] = format: functional; settings: Homo sapiens, time 48 hrs
# NCI-H23 [4] = format: functional; settings: Homo sapiens, time 48 hrs
# NCI-H522 = format: functional; settings: Homo sapiens, time 48 hrs
# HCT-116 [5] = format: functional; settings: Homo sapiens, time 48 hrs
# HCT-15 = format: functional; settings: Homo sapiens, time 48 hrs
# KM12 = format: functional; settings: Homo sapiens, time 48 hrs
# SNB-75 [6] = format: functional; settings: Homo sapiens, time 48 hrs
# MDA-MB-435 = format: functional; settings: Homo sapiens, time 48 hrs
# OVCAR-3 = format: functional; settings: Homo sapiens, time 48 hrs
# SK-OV-3 [7] = format: functional; settings: Homo sapiens, time 48 hrs
# A498 [8] = format: functional; settings: Homo sapiens, time 48 hrs
# ACHN = format: functional; settings: Homo sapiens, time 48 hrs
# UO-31 [9] = format: functional; settings: Homo sapiens, time 48 hrs
# DU-145 [10] = format: functional; settings: Homo sapiens, time 48 hrs
# MDA-MB-468 [11] = format: functional; settings: Homo sapiens, time 48 hrs
# CCRF-CEM [12] = format: functional; settings: Homo sapiens, time 48 hrs; remark: listed apart in the source
# HL-60(TB) [13] = format: functional; settings: Homo sapiens, time 48 hrs; remark: listed apart in the source
# MOLT-4 = format: functional; settings: Homo sapiens, time 48 hrs
# A549 [14] = format: functional; settings: Homo sapiens, time 48 hrs
# NCI-H23 [15] = format: functional; settings: Homo sapiens, time 48 hrs; remark: listed apart in the source
# NCI-H460 = format: functional; settings: Homo sapiens, time 48 hrs
# HCT-116 [16] = format: functional; settings: Homo sapiens, time 48 hrs; remark: listed apart in the source
# SF-268 = format: functional; settings: Homo sapiens, time 48 hrs
# SNB-75 [17] = format: functional; settings: Homo sapiens, time 48 hrs; remark: listed apart in the source
# SK-MEL-2 [18] = format: functional; settings: Homo sapiens, time 48 hrs
# UACC-62 [19] = format: functional; settings: Homo sapiens, time 48 hrs
# OVCAR-5 = format: functional; settings: Homo sapiens, time 48 hrs
# 786-0 = format: functional; settings: Homo sapiens, time 48 hrs
# A498 [20] = format: functional; settings: Homo sapiens, time 48 hrs; remark: listed apart in the source
# RXF 393 [21] = format: functional; settings: Homo sapiens, time 48 hrs
# TK-10 = format: functional; settings: Homo sapiens, time 48 hrs
# PC-3 [22] = format: functional; settings: Homo sapiens, time 48 hrs
# DU-145 [23] = format: functional; settings: Homo sapiens, time 48 hrs; remark: listed apart in the source
# MDA-MB-231 [24] = format: functional; settings: Homo sapiens, time 48 hrs
# BT-549 = format: functional; settings: Homo sapiens, time 48 hrs
# T47D = format: functional; settings: Homo sapiens, time 48 hrs
# MDA-MB-468 [25] = format: functional; settings: Homo sapiens, time 48 hrs; remark: listed apart in the source
# CCRF-CEM [26] = settings: Homo sapiens, 48 h, read-out: LC50
# A549 [27] = settings: Homo sapiens, A549, 48 h, read-out: LC50
# HOP-92 [28] = settings: Homo sapiens, HOP-92, 48 h, read-out: LC50
# NCI-H23 [29] = settings: Homo sapiens, NCI-H23, 48 h, read-out: LC50
# NCI-H322M = settings: Homo sapiens, 48 h, read-out: LC50
# HCC 2998 = settings: Homo sapiens, HCC 2998, 48 h, read-out: LC50
# SNB-19 = settings: Homo sapiens, SNB-19, 48 h, read-out: LC50
# SNB-75 [30] = settings: Homo sapiens, SNB-75, 48 h, read-out: LC50
# U-251 = settings: Homo sapiens, U-251, 48 h, read-out: LC50
# M14 = settings: Homo sapiens, M14, 48 h, read-out: LC50
# SK-MEL-2 [31] = settings: Homo sapiens, SK-MEL-2, 48 h, read-out: LC50
# UACC-62 [32] = settings: Homo sapiens, UACC-62, 48 h, read-out: LC50
# OVCAR-4 = settings: Homo sapiens, OVCAR-4, 48 h, read-out: LC50
# SK-OV-3 [33] = settings: Homo sapiens, SK-OV-3, 48 h, read-out: LC50
# A498 [34] = settings: Homo sapiens, A498, 48 h, read-out: LC50
# RXF 393 [35] = settings: Homo sapiens, RXF 393, 48 h, read-out: LC50
# UO-31 [36] = settings: Homo sapiens, UO-31, 48 h, read-out: LC50
# PC-3 [37] = settings: Homo sapiens, PC-3, 48 h, read-out: LC50
# DU-145 [38] = settings: Homo sapiens, DU-145, 48 h, read-out: LC50
# MDA-MB-231 [39] = settings: Homo sapiens, MDA-MB-231, 48 h, read-out: LC50
# Hs-578T = settings: Homo sapiens, 48 h, read-out: LC50
compound,measurement,setting,value
CCOC(=O)c1ccc(N/N=C/c2cn(-c3ccc(S(N)(=O)=O)cc3)nc2-c2ccc(OC)cc2)cc1,GI50,CCRF-CEM [1],3.03 µM
same,GI50,HL-60(TB) [2],2.52 µM
same,GI50,EKVX,3.44 µM
same,GI50,HOP-92 [3],2.65 µM
same,GI50,NCI-H23 [4],3.41 µM
same,GI50,NCI-H522,2.15 µM
same,GI50,HCT-116 [5],3.17 µM
same,GI50,HCT-15,2.5 µM
same,GI50,KM12,2.05 µM
same,GI50,SNB-75 [6],2.76 µM
same,GI50,MDA-MB-435,2.34 µM
same,GI50,OVCAR-3,2.4 µM
same,GI50,SK-OV-3 [7],8.18 µM
same,GI50,A498 [8],9.46 µM
same,GI50,ACHN,3.29 µM
same,GI50,UO-31 [9],2.58 µM
same,GI50,DU-145 [10],3.02 µM
same,GI50,MDA-MB-468 [11],2.32 µM
same,TGI,CCRF-CEM [12],11.7 µM
same,TGI,HL-60(TB) [13],10.2 µM
same,TGI,MOLT-4,7.85 µM
same,TGI,A549 [14],> 100 µM
same,TGI,NCI-H23 [15],22.5 µM
same,TGI,NCI-H460,7.39 µM
same,TGI,HCT-116 [16],14.4 µM
same,TGI,SF-268,36.3 µM
same,TGI,SNB-75 [17],9.2 µM
same,TGI,SK-MEL-2 [18],23.9 µM
same,TGI,UACC-62 [19],23.3 µM
same,TGI,OVCAR-5,17 µM
same,TGI,786-0,4.92 µM
same,TGI,A498 [20],96.9 µM
same,TGI,RXF 393 [21],3.77 µM
same,TGI,TK-10,> 100 µM
same,TGI,PC-3 [22],> 100 µM
same,TGI,DU-145 [23],9.82 µM
same,TGI,MDA-MB-231 [24],9.2 µM
same,TGI,BT-549,> 100 µM
same,TGI,T47D,> 100 µM
same,TGI,MDA-MB-468 [25],6.04 µM
same,CC50,CCRF-CEM [26],> 100 µM
same,CC50,A549 [27],> 100 µM
same,CC50,HOP-92 [28],> 100 µM
same,CC50,NCI-H23 [29],> 100 µM
same,CC50,NCI-H322M,> 100 µM
same,CC50,HCC 2998,9.45 µM
same,CC50,SNB-19,> 100 µM
same,CC50,SNB-75 [30],> 100 µM
same,CC50,U-251,> 100 µM
same,CC50,M14,> 100 µM
same,CC50,SK-MEL-2 [31],> 100 µM
same,CC50,UACC-62 [32],> 100 µM
same,CC50,OVCAR-4,> 100 µM
same,CC50,SK-OV-3 [33],> 100 µM
same,CC50,A498 [34],> 100 µM
same,CC50,RXF 393 [35],7.27 µM
same,CC50,UO-31 [36],> 100 µM
same,CC50,PC-3 [37],> 100 µM
same,CC50,DU-145 [38],> 100 µM
same,CC50,MDA-MB-231 [39],> 100 µM
same,CC50,Hs-578T,> 100 µM
CCOC(=O)c1ccc(N/N=C/c2cn(-c3ccc(S(N)(=O)=O)cc3)nc2-c2ccccc2)cc1,GI50,CCRF-CEM [1],2.85 µM
same,GI50,HL-60(TB) [2],1.95 µM
same,GI50,EKVX,2.75 µM
same,GI50,HOP-92 [3],2.54 µM
same,GI50,NCI-H23 [4],2.26 µM
same,GI50,NCI-H522,2.01 µM
same,GI50,HCT-116 [5],2.58 µM
same,GI50,HCT-15,1.57 µM
same,GI50,KM12,1.88 µM
same,GI50,SNB-75 [6],2.32 µM
same,GI50,MDA-MB-435,2.03 µM
same,GI50,OVCAR-3,2.2 µM
same,GI50,SK-OV-3 [7],4.15 µM
same,GI50,A498 [8],11.8 µM
same,GI50,ACHN,2.77 µM
same,GI50,UO-31 [9],2.65 µM
same,GI50,DU-145 [10],2.77 µM
same,GI50,MDA-MB-468 [11],1.81 µM
same,TGI,CCRF-CEM [12],9.81 µM
same,TGI,HL-60(TB) [13],4.82 µM
same,TGI,MOLT-4,4.18 µM
same,TGI,A549 [14],> 100 µM
same,TGI,NCI-H23 [15],5.49 µM
same,TGI,NCI-H460,5.22 µM
same,TGI,HCT-116 [16],6.75 µM
same,TGI,SF-268,8.14 µM
same,TGI,SNB-75 [17],6.88 µM
same,TGI,SK-MEL-2 [18],7.11 µM
same,TGI,UACC-62 [19],9.22 µM
same,TGI,OVCAR-5,5.14 µM
same,TGI,786-0,4.52 µM
same,TGI,A498 [20],5.29 µM
same,TGI,RXF 393 [21],3.67 µM
same,TGI,TK-10,76.7 µM
same,TGI,PC-3 [22],20.8 µM
same,TGI,DU-145 [23],9.38 µM
same,TGI,MDA-MB-231 [24],5.5 µM
same,TGI,BT-549,12.6 µM
same,TGI,T47D,21.2 µM
same,TGI,MDA-MB-468 [25],3.84 µM
same,CC50,CCRF-CEM [26],> 100 µM
same,CC50,A549 [27],> 100 µM
same,CC50,HOP-92 [28],> 100 µM
same,CC50,NCI-H23 [29],45.2 µM
same,CC50,NCI-H322M,> 100 µM
same,CC50,HCC 2998,7.01 µM
same,CC50,SNB-19,> 100 µM
same,CC50,SNB-75 [30],> 100 µM
same,CC50,U-251,9.69 µM
same,CC50,M14,37.6 µM
same,CC50,SK-MEL-2 [31],37.4 µM
same,CC50,UACC-62 [32],38.3 µM
same,CC50,OVCAR-4,> 100 µM
same,CC50,SK-OV-3 [33],> 100 µM
same,CC50,A498 [34],> 100 µM
same,CC50,RXF 393 [35],7.61 µM
same,CC50,UO-31 [36],> 100 µM
same,CC50,PC-3 [37],> 100 µM
same,CC50,DU-145 [38],> 100 µM
same,CC50,MDA-MB-231 [39],50.2 µM
same,CC50,Hs-578T,> 100 µM
